Reference: ChEMBL document CHEMBL4888484, “Replenishing the malaria drug discovery pipeline: Screening and hit evaluation of the MMV Hit Generation Library 1 (HGL1) against asexual blood stage Plasmodium falciparum ,using a nano luciferase reporter read-out” (2022)
In all, about 150,000 compounds went through this assay and about 540 (0.36%) showed an effect of 50% or more. The list shows a part of the results.

Test system: Plasmodium falciparum
Assay: Primary screen in NF54 nanoGlo assay, in single point, at 2uM, 72h; a lower Z score goes with more inhibition
Format: functional, Erythrocyte
Conditions: timepoint 72 hour

| SMILES | % Inhibition | Z score |
| --- | --- | --- |
| CC[C@H](CO)NC(=O)Nc1ccc(C(C)=O)c(Cl)c1 | -16% | 1.34 |
| CC(=O)N(CCN1CCCCC1)[C@H]1CCCN(Cc2ccccc2C(F)(F)F)C1 | -7% | 0.97 |
| Cc1nc([C@H]2CCCN2S(=O)(=O)c2c(C(F)F)c(C)nn2C)cs1 | -7% | 0.82 |
| CC[C@H](C)NC(=O)c1cc(C)ccc1O | -1% | 0.11 |
| CC(=O)N1CCN(Cc2nc(C3CCCC3)no2)CC12CCCCC2 | -2% | 0.34 |
| COc1ccc(-c2nc(CC(C)C)nn2-c2ccccn2)cc1O | 2% | -0.37 |
| COc1cccc(CN2CCC[C@H](c3cc4n(n3)CCCN(C)C4=O)C2)n1 | -4% | 0.72 |
| O=C(c1ccco1)N1CCN(C(=O)[C@H]2CCCN(c3c(-c4ccccc4)c4cc(Cl)ccc4[nH]c3=O)C2)CC1 | -34% | 4.95 |
| O=C(CCc1c[nH]c2ccccc12)Nc1nc(C2CC2)n[nH]1 | 1% | -0.14 |
| O=C(CC1(O)CCCCC1)Nc1nnc(Cc2ccsc2)s1 | -5% | 0.86 |
| CCC(CC)n1nc(C(=O)N[C@H]2CCN(CC(F)F)C2)cc1C | -11% | 1.47 |
| CC1CCCN(C(=O)Nc2ccc(N3CC(C)OC(C)C3)cc2)C1 (centres undefined) | 3% | -0.4 |
| C[C@H]1COCCN1Cc1noc(-c2ccco2)n1 | -15% | 1.72 |
| CN(CCCNC(=O)Nc1cccc2[nH]ncc12)C1CCCC1 | 4% | -0.48 |
| CN1CCN(CC2(CNc3ccc(C(N)=O)cn3)CC2)CC1 | 3% | -0.37 |
| CC(=O)NCCCC(=O)NCCCn1ccnc1 | 5% | -1.01 |
| COc1ccc(Oc2ncc(-c3ccc(C(=O)Nc4cc(C)cc(C)c4)cc3)cn2)cc1 | -5% | 0.85 |
| Cc1ccoc1C(=O)Nc1ncccc1N1CCCCC1 | 8% | -0.8 |
| C[C@@H](C(=O)Nc1nc(C(N)=O)cs1)N(C)CC(F)(F)F | -7% | 1.15 |
| O=C(c1nn(Cc2ccccc2)c(=O)c2ccccc12)N1CCC[C@H]1c1ccc(O)cc1 | 8% | -1.33 |
| COC(=O)c1cccc(C(=O)N2CCc3ccccc32)n1 | -13% | 1.91 |

| SMILES | % Inhibition | Z score |
| --- | --- | --- |
| Cc1ccc(-c2nc(C#N)c(S(=O)(=O)N3CCCC[C@@H]3C)o2)cc1 | -13% | 1.76 |
| Clc1cccc2c1Oc1cccc3c1N2CCC3 | 3% | -0.34 |
| Cc1ccc(C(=O)N(C)C2CCCC2O)s1 (centres undefined) | -19% | 2.45 |
| O=C(Nc1ccc2c(c1)OCCO2)c1ccc(-n2nc(OCc3ccc(Cl)cc3)ccc2=O)cc1 | -1% | 0.14 |
| CC1(C)CCc2nnc(C(=O)N3CCCC3)n2C1 | -21% | 2.67 |
| COCc1nc(CCc2ccncc2)n(CC(C)(C)O)n1 | -10% | 2.05 |
| c1ccc2c(c1)CC(n1nc([C@H]3CCOC3)nc1-c1cnc[nH]1)C2 | -13% | 1.59 |
| CCCc1nc(CNc2ccc(C)c(N3CCOC3=O)c2)cs1 | 2% | -0.29 |
| O=C(NCc1nccc(N2CCCC2)n1)C1CCCCC1 | -1% | 0.22 |
| Cc1cnc(C2CC2)n1CC1CCN(C(=O)[C@H]2CCOC2)CC1 | -2% | 0.24 |
| Cc1cccc(C(=O)N2CCCCC[C@H]2c2nc(C)no2)c1 | -10% | 2.01 |
| CN1CCC(CCNC(=O)c2cc(-c3ccccc3)nc3ncnn23)CC1 | -34% | 3.96 |
| COc1ccc(C(=O)N[C@@H]2CCC[C@@H]2C(=O)N2CCN(c3ccccn3)CC2)cc1 | 2% | -0.22 |
| COCCCN(C(=O)c1ccc(-c2ccccc2C)nc1N(C)C)C1CCN(C)CC1 | 1% | -0.1 |
| CC1(C)CCC[C@H](C(=O)NCc2nc(C(F)(F)F)cs2)C1 | -7% | 1.24 |
| Cc1cc(S(=O)(=O)N2CC(N(CC(C)C)C3CCOCC3)C2)ccc1F | 8% | -1.51 |
| CCOC(=O)Nc1nc2c(s1)CNCC2 | 19% | -2.47 |
| COc1ccc(CNS(=O)(=O)c2c(C)noc2C)cn1 | -8% | 0.7 |
| C#CCOC[C@@H](O)CN(Cc1cc(OC)cc(OC)c1)C(C)C | -12% | 1.62 |
| O=C(Nc1cccc(Cc2ccccc2)c1)N1CC(N2CCOCC2)C1 | 2% | -0.22 |
| CCn1ccnc1CN1CCCC12CCN(c1ccc3ncccc3c1)CC2 | -8% | 0.77 |
